This is one part of the list. The list includes weakly bound sequences.
Molecular target: T1, MBP-FoxP3dN (UniProt Q99JB6)
T1 sequence: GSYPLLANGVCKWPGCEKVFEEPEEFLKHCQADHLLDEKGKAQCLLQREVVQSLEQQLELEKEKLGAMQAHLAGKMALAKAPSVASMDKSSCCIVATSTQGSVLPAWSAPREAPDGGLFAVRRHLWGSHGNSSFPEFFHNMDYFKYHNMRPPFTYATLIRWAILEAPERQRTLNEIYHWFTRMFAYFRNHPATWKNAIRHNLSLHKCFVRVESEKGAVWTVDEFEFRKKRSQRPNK
Test: PD-seq (MBP pull-down with sequencing)
Conditions: 20 mM Tris-HCl pH 7.5, 100 mM NaCl, 1.5 mM MgCl2, 0.4 uM protein, 0.1 uM dsDNA library, 30 min, room temperature, amylose pull-down; high values mean tight binding; double strand, one strand shown

Sequence | binding signal (RPM ratio (pull-down/input))
GATGATTGTTCTCCCAGCTGATGAATTGGATCGGTCGAGTAAACAAATTTTCCTAATCTTTCTGTTCAAGCGCCATCTAC | 0.198
GATGATTGTTCTCCCAGCTGATGAATTAGGGAATTCGAGTAAACAAATTTTCCTAATCTTTCTGTTCAAGCGCCATCTAC | 0.853
GATGATTGTTCTCCCAGCTGATGAATTCATTAGATCGAGTAAACAAATTTTCCTAATCTTTCTGTTCAAGCGCCATCTAC | 0.251
GATGATTGTTCTCCCAGCTGATGAATTTCGTATCTCGAGTAAACAAATTTTCCTAATCTTTCTGTTCAAGCGCCATCTAC | 3.84
GATGATTGTTCTCCCAGCTGATGAATTCGATATATCGAGTAAACAAATTTTCCTAATCTTTCTGTTCAAGCGCCATCTAC | 0.823
GATGATTGTTCTCCCAGCTGATGAATTATATTAGTCGAGTAAACAAATTTTCCTAATCTTTCTGTTCAAGCGCCATCTAC | 3.01
GATGATTGTTCTCCCAGCTGATGAATTACCCGGATCGAGTAAACAAATTTTCCTAATCTTTCTGTTCAAGCGCCATCTAC | 0.146
GATGATTGTTCTCCCAGCTGATGAATTCAGGTCCTCGAGTAAACAAATTTTCCTAATCTTTCTGTTCAAGCGCCATCTAC | 0.428
GATGATTGTTCTCCCAGCTGATGAATTTTATGGTTCGAGTAAACAAATTTTCCTAATCTTTCTGTTCAAGCGCCATCTAC | 1.56
GATGATTGTTCTCCCAGCTGATGAATTCGAAGAATCGAGTAAACAAATTTTCCTAATCTTTCTGTTCAAGCGCCATCTAC | 0.179
GATGATTGTTCTCCCAGCTGATGAATTCCCACGCTCGAGTAAACAAATTTTCCTAATCTTTCTGTTCAAGCGCCATCTAC | 0.307
GATGATTGTTCTCCCAGCTGATGAATTAGCTCATTCGAGTAAACAAATTTTCCTAATCTTTCTGTTCAAGCGCCATCTAC | 0.355
GATGATTGTTCTCCCAGCTGATGAATTCTAACCATCGAGTAAACAAATTTTCCTAATCTTTCTGTTCAAGCGCCATCTAC | 0.387
GATGATTGTTCTCCCAGCTGATGAATTCATGGACTCGAGTAAACAAATTTTCCTAATCTTTCTGTTCAAGCGCCATCTAC | 0.405
GATGATTGTTCTCCCAGCTGATGAATTAGTGTGGTCGAGTAAACAAATTTTCCTAATCTTTCTGTTCAAGCGCCATCTAC | 2.28
GATGATTGTTCTCCCAGCTGATGAATTGCTGCTGTCGAGTAAACAAATTTTCCTAATCTTTCTGTTCAAGCGCCATCTAC | 0.711
GATGATTGTTCTCCCAGCTGATGAATTCTACTAGTCGAGTAAACAAATTTTCCTAATCTTTCTGTTCAAGCGCCATCTAC | 0.345
GATGATTGTTCTCCCAGCTGATGAATTTCCCCCCTCGAGTAAACAAATTTTCCTAATCTTTCTGTTCAAGCGCCATCTAC | 0.205
GATGATTGTTCTCCCAGCTGATGAATTATTTTAATCGAGTAAACAAATTTTCCTAATCTTTCTGTTCAAGCGCCATCTAC | 0.348
GATGATTGTTCTCCCAGCTGATGAATTGTCGGCGTCGAGTAAACAAATTTTCCTAATCTTTCTGTTCAAGCGCCATCTAC | 0.501
GATGATTGTTCTCCCAGCTGATGAATTATTCACATCGAGTAAACAAATTTTCCTAATCTTTCTGTTCAAGCGCCATCTAC | 0.505

Sequence | binding signal (RPM ratio (pull-down/input))
GATGATTGTTCTCCCAGCTGATGAATTGCGAGGATCGAGTAAACAAATTTTCCTAATCTTTCTGTTCAAGCGCCATCTAC | 0.538
GATGATTGTTCTCCCAGCTGATGAATTTCGACATTCGAGTAAACAAATTTTCCTAATCTTTCTGTTCAAGCGCCATCTAC | 1.41
GATGATTGTTCTCCCAGCTGATGAATTATAGGTCTCGAGTAAACAAATTTTCCTAATCTTTCTGTTCAAGCGCCATCTAC | 0.458
GATGATTGTTCTCCCAGCTGATGAATTAGCATGTTCGAGTAAACAAATTTTCCTAATCTTTCTGTTCAAGCGCCATCTAC | 1.71
GATGATTGTTCTCCCAGCTGATGAATTTCCAAAATCGAGTAAACAAATTTTCCTAATCTTTCTGTTCAAGCGCCATCTAC | 0.16
GATGATTGTTCTCCCAGCTGATGAATTTTTAAGATCGAGTAAACAAATTTTCCTAATCTTTCTGTTCAAGCGCCATCTAC | 0.181
GATGATTGTTCTCCCAGCTGATGAATTGGAGCACTCGAGTAAACAAATTTTCCTAATCTTTCTGTTCAAGCGCCATCTAC | 0.403
GATGATTGTTCTCCCAGCTGATGAATTCGCACTGTCGAGTAAACAAATTTTCCTAATCTTTCTGTTCAAGCGCCATCTAC | 0.491
GATGATTGTTCTCCCAGCTGATGAATTGAACCTTTCGAGTAAACAAATTTTCCTAATCTTTCTGTTCAAGCGCCATCTAC | 0.324
GATGATTGTTCTCCCAGCTGATGAATTGATAGTGTCGAGTAAACAAATTTTCCTAATCTTTCTGTTCAAGCGCCATCTAC | 0.998
GATGATTGTTCTCCCAGCTGATGAATTTATGGTTTCGAGTAAACAAATTTTCCTAATCTTTCTGTTCAAGCGCCATCTAC | 2.56
GATGATTGTTCTCCCAGCTGATGAATTGCCTCCTTCGAGTAAACAAATTTTCCTAATCTTTCTGTTCAAGCGCCATCTAC | 1.23
GATGATTGTTCTCCCAGCTGATGAATTCAGCGCATCGAGTAAACAAATTTTCCTAATCTTTCTGTTCAAGCGCCATCTAC | 1.15
GATGATTGTTCTCCCAGCTGATGAATTTAGGTACTCGAGTAAACAAATTTTCCTAATCTTTCTGTTCAAGCGCCATCTAC | 0.893
GATGATTGTTCTCCCAGCTGATGAATTCTCGGCGTCGAGTAAACAAATTTTCCTAATCTTTCTGTTCAAGCGCCATCTAC | 0.374
GATGATTGTTCTCCCAGCTGATGAATTAAAGTACTCGAGTAAACAAATTTTCCTAATCTTTCTGTTCAAGCGCCATCTAC | 0.43
GATGATTGTTCTCCCAGCTGATGAATTGAAAACGTCGAGTAAACAAATTTTCCTAATCTTTCTGTTCAAGCGCCATCTAC | 0.286
GATGATTGTTCTCCCAGCTGATGAATTTATCCTATCGAGTAAACAAATTTTCCTAATCTTTCTGTTCAAGCGCCATCTAC | 0.872
GATGATTGTTCTCCCAGCTGATGAATTGGCTTTGTCGAGTAAACAAATTTTCCTAATCTTTCTGTTCAAGCGCCATCTAC | 1.71
GATGATTGTTCTCCCAGCTGATGAATTGAAAAACTCGAGTAAACAAATTTTCCTAATCTTTCTGTTCAAGCGCCATCTAC | 0.215
GATGATTGTTCTCCCAGCTGATGAATTCCAGCCGTCGAGTAAACAAATTTTCCTAATCTTTCTGTTCAAGCGCCATCTAC | 0.342

Sequence | binding signal (RPM ratio (pull-down/input))
GATGATTGTTCTCCCAGCTGATGAATTACTAGAGTCGAGTAAACAAATTTTCCTAATCTTTCTGTTCAAGCGCCATCTAC | 0.28
GATGATTGTTCTCCCAGCTGATGAATTTATTTACTCGAGTAAACAAATTTTCCTAATCTTTCTGTTCAAGCGCCATCTAC | 6.74
GATGATTGTTCTCCCAGCTGATGAATTCTTCGACTCGAGTAAACAAATTTTCCTAATCTTTCTGTTCAAGCGCCATCTAC | 0.239
GATGATTGTTCTCCCAGCTGATGAATTTGGTACTTCGAGTAAACAAATTTTCCTAATCTTTCTGTTCAAGCGCCATCTAC | 0.725
GATGATTGTTCTCCCAGCTGATGAATTACTTCTGTCGAGTAAACAAATTTTCCTAATCTTTCTGTTCAAGCGCCATCTAC | 0.296
GATGATTGTTCTCCCAGCTGATGAATTCCTAGCCTCGAGTAAACAAATTTTCCTAATCTTTCTGTTCAAGCGCCATCTAC | 0.345
GATGATTGTTCTCCCAGCTGATGAATTCAAATTGTCGAGTAAACAAATTTTCCTAATCTTTCTGTTCAAGCGCCATCTAC | 0.581
GATGATTGTTCTCCCAGCTGATGAATTCCCTACATCGAGTAAACAAATTTTCCTAATCTTTCTGTTCAAGCGCCATCTAC | 0.31
GATGATTGTTCTCCCAGCTGATGAATTATGGCGCTCGAGTAAACAAATTTTCCTAATCTTTCTGTTCAAGCGCCATCTAC | 0.931
GATGATTGTTCTCCCAGCTGATGAATTGATAGCATCGAGTAAACAAATTTTCCTAATCTTTCTGTTCAAGCGCCATCTAC | 1.26
GATGATTGTTCTCCCAGCTGATGAATTACCATGATCGAGTAAACAAATTTTCCTAATCTTTCTGTTCAAGCGCCATCTAC | 0.334
GATGATTGTTCTCCCAGCTGATGAATTTTTTGCGTCGAGTAAACAAATTTTCCTAATCTTTCTGTTCAAGCGCCATCTAC | 0.525
GATGATTGTTCTCCCAGCTGATGAATTATTTCTCTCGAGTAAACAAATTTTCCTAATCTTTCTGTTCAAGCGCCATCTAC | 0.353
GATGATTGTTCTCCCAGCTGATGAATTCACACATTCGAGTAAACAAATTTTCCTAATCTTTCTGTTCAAGCGCCATCTAC | 0.461
GATGATTGTTCTCCCAGCTGATGAATTATAGATTTCGAGTAAACAAATTTTCCTAATCTTTCTGTTCAAGCGCCATCTAC | 0.367
GATGATTGTTCTCCCAGCTGATGAATTCGTGTATTCGAGTAAACAAATTTTCCTAATCTTTCTGTTCAAGCGCCATCTAC | 2.95
GATGATTGTTCTCCCAGCTGATGAATTTTCATAGTCGAGTAAACAAATTTTCCTAATCTTTCTGTTCAAGCGCCATCTAC | 0.271
GATGATTGTTCTCCCAGCTGATGAATTATGACCATCGAGTAAACAAATTTTCCTAATCTTTCTGTTCAAGCGCCATCTAC | 0.696
GATGATTGTTCTCCCAGCTGATGAATTCTCTTAATCGAGTAAACAAATTTTCCTAATCTTTCTGTTCAAGCGCCATCTAC | 0.193
GATGATTGTTCTCCCAGCTGATGAATTGCACGAATCGAGTAAACAAATTTTCCTAATCTTTCTGTTCAAGCGCCATCTAC | 0.519
GATGATTGTTCTCCCAGCTGATGAATTAGTAGACTCGAGTAAACAAATTTTCCTAATCTTTCTGTTCAAGCGCCATCTAC | 0.847
